Assay results published in the supplement of paper PMC10126150.
Sequences with one replicate were seen in a single cluster, so their values are uncertain.

Tested on: ATP
Assay: switch fluorescence ratio, 500 uM ATP over buffer (Cy3 cluster intensity, sum of 5 cycles each) (fold (ratio)); higher = stronger signal-on switching upon ATP binding; sequences stand for … in TCGTCGGCAGCGTCAGATGTGTATAAGAGACAGTTTTTTTTTTTTTTTTTTTTTTTTT…TC
Conditions: aptamer strand: ATP DNA aptamer (quencher-CACCTGGGGGAGTATTGCGGAGGAAGG + anchor), 100 nM annealed; ATP concentration: 500 uM; one replicate
Procedure, shortened: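 For every switch-domain sequence, the fluorescence ratio is the mean of per-cluster values, each being summed target-cycle Cy3 intensity over summed buffer-cycle Cy3 intensity. Clusters outside 100-1000 RFU were excluded. On a modified Illumina MiSeq flow-cell, the Cy3-labelled switching-strand clusters were annealed to 100 nM quencher-labelled ATP aptamer, imaged in selection buffer and then after 15 min with 500 uM ATP at 22 °C. Five such cycles were run, with NaOH stripping and re-annealing between them.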
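Note: ATP exposure 15 min at 22 °C before imaging.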

Sequence | switch fluorescence ratio
ACTAGGGGTC | 0.946
CGTACAGTTG | 0.952
AGTGATTATT | 1
AGGGATGAGC | 0.996
TACCAGCCCC | 1.01
GTCGAAGGGG | 1.05
GTACTAAAGG | 1.05
GTATTCTTGA | 0.985
ATAGCCGGGG | 1.02
TAGCTCTATT | 0.981
TTGACATCGC | 1.04
GACTGTGGGA | 0.993
GGAGGTCTCG | 0.995
CGATATATAT | 1.04
GGCTGAGTGT | 1
GGAGGTGCG | 0.999
TGTACGACGC | 1.74
TCACTGTTTT | 1.03
TTTAGTCGGC | 0.957
ATGTCTGAAA | 0.997
TCCTCAGGGA | 2.08
CGCGGGGCAT | 1.02
ACTAGGCCTG | 0.962

Sequence | switch fluorescence ratio
AGACGCGGGA | 1.04
TTAGCCGGTA | 0.975
ATGTACTCCT | 1.13
TAAAGAACTT | 1.1
TTCAATATTC | 1.05
AGGTTCTAAA | 0.997
TGATCTGAGT | 1.15
GTTGGCGATT | 1.03
TAATTGCGGC | 0.976
AGGGCTTATC | 1.05
GATGCCCGGT | 1.08
AGGCGGTCAA | 1.01
TTCGCGAACA | 1.04
GGCCCCACAC | 1.19
AAATTAGTC | 0.939
ACCTTTCAGC | 1.25
TCGACAGCGT | 1.04
GAGTACTCAT | 0.99
GGTCATATTC | 1.02
GACAAGTGAA | 1.01
AGATGAGACA | 0.978
GGGCGTGGCC | 1.05
TTCTCCGGGG | 0.991

Sequence | switch fluorescence ratio
CGACTTCCGG | 1.02
TGATAAGTTT | 0.966
TAGCGCTCCT | 1.03
ATTGGAGTCA | 1.02
CTTTGGTTAC | 1.07
AATTGTTGTA | 1.03
ACCCGACAAG | 1.24
GTTATCGTGT | 0.972
CGAATTTCCG | 1.02
GGAACGCACT | 1.15
TATTATGGAC | 1
GAGTGATGAG | 1.03
CACAGTTATC | 1.05
TCCGGTTCT | 1.02
TAAAGGCCCG | 1.03
GACCAAAGGC | 1.04
TATTTAATCG | 0.993
TTAAACCACG | 1.07
GTCACTAGAC | 1.06
GTGGTTCTAA | 0.988
ACTAGGCCGG | 1.01
CTTATCGTTA | 1
GGAAATTTGC | 1.02

Sequence | switch fluorescence ratio
CATCTCGATC | 1.07
TCCAATAAGT | 0.989
GATGCAAGGT | 1.3
ATATCCATGG | 0.97
CTATCCTGAC | 1.95
AATTGATTG | 0.993
TACCCTTTAC | 1.22
GAGAATATGG | 1.03
TGAGAAGGT | 0.951
CGAGAACAGC | 0.975
TCGAAGCTGT | 1.01
GAATATAATT | 1.03
ACGGCTGACG | 1.06
CACATTGGAA | 1
ATATGTGAGT | 0.992
CTCAGAGGCA | 1.02
GGCTGCAGCA | 1.03
CACGATATAG | 1.11
AGTATCAGGT | 1.01
CGCAATGGAA | 2.45
GGTAAGTAAG | 1.03
CTTGTAACCA | 0.979
TCAATCGATC | 0.996

Sequence | switch fluorescence ratio
TGGCTGGGCC | 1.02
CGCCGGCCTT | 1.06
AGTCCTGTCG | 0.94
CTTCTGTCCA | 1.03
CGGGCCTGGC | 0.892
CCGCGGCGGT | 1.01
CATAATAGG | 1.02
CGGTGGCAGT | 1
TTGGCAAAGT | 0.992
AGCTGGGTAC | 1.39
TACGTTCCGT | 1.09
AGATAAGTAA | 1.02
AGAAGGACAG | 0.983
GGTGATCCCA | 0.982
AAGGTGTGAG | 0.971
TATCATTTCA | 1.04
AATAAGAGGT | 1.08
GAGGACTAAT | 1.01
CTAGCACATG | 0.959
GAGTAAGTTC | 1.01
TAGCAAGATG | 1.12
AGGTCTGAGA | 1.02
GCAGCTCCGC | 1.19

Sequence | switch fluorescence ratio
TCCATCTGGT | 0.993
GCGATCATTC | 0.997
CACTCGTAGG | 1.02
ACTGTCAATC | 1.42
TGAGATGG | 0.952
TAAAAGTCAT | 0.996
TAAACAAGGT | 1.61
CCATGGAAGC | 1.02
ACCGTTACAT | 1.21
GACAGGAGGG | 1.1
ATCGGACTAC | 1.39
GAACGGAGGA | 1.02
GTGGTTATTA | 0.993
GCTGTGAACG | 1
CGTAGCCCTG | 1.03
TTTGCTCTTT | 0.953
TGAGGTACGA | 1.09
ATACCCGGTT | 1.05
ATCTTAGAT | 1.03
CACCAGACAC | 1.14
GTTTTTAAAG | 0.996
GCGACCGTC | 1.04
AACTGGAA | 1.06

Sequence | switch fluorescence ratio
GCAATGCTTT | 2.02
CCATTCAACG | 1.02
TATGGGAA | 1.03
GGAAGGGTGT | 1.04
GTGACCATTC | 1.01
AGGTTCAAGT | 0.996
TAACAAGTGC | 0.98
CCTCTGGTAT | 3.04
ATTAGACCGA | 1.02
ATTGTTGCCC | 0.969
CGGTCTGTGC | 1.01
CGTAGTTCG | 1.03
GATATTGCCT | 1.06
TTTGACGCTT | 1.11
GGATCAGAGT | 1.04
TAGACGACCT | 1.09
ACATTAGCCC | 1.03
AACATTCTTT | 1.08
AATCCGTGGA | 0.948
